# Among all 110,000 compounds or so, about 610 (0.55%) were called active. The shares of active, inactive and inconclusive entries below differ from those in the screen. The call rests on the fitted dose curve; in most records, active means well fitted inhibition curve with a large enough effect; inconclusive means small, poorly fitted or top-dose-only effect; inactive means no such curve, though single readings can be large or run the other way. Where the call is inconclusive, the potency comes from a doubtful curve fit.
# Biological target: Polyunsaturated fatty acid lipoxygenase ALOX15B (Homo sapiens) (UniProt O15296)
# Test: qHTS Assay for Inhibitors of 15-hLO-2 (15-human lipoxygenase 2); further: nearly all actives have a fitted effect of over 60% in size
# Conditions: purified 15hLO-2, xylenol orange hydroperoxide absorbance; activity change, negative = inhibition: at 57.1 µM (top of the series) unless noted
# Method in brief: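 Purified human 15hLO-2 (50 nM) preincubated 15 min with compound, then 45 uM arachidonic acid for 90 min at RT in 25 mM Hepes pH 7.5, 0.01% Triton X-100. Hydroperoxide detected by Fe-xylenol orange; 573/405 nm absorbance ratio.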
# On the % scale 0 is the no-effect control and ±100 the full control effect; potency means the concentration at half of the fitted maximal effect; tags describe the fitted curve by direction and shape.
# UniProt O15296, sequence (O15296 whole entry, looked up): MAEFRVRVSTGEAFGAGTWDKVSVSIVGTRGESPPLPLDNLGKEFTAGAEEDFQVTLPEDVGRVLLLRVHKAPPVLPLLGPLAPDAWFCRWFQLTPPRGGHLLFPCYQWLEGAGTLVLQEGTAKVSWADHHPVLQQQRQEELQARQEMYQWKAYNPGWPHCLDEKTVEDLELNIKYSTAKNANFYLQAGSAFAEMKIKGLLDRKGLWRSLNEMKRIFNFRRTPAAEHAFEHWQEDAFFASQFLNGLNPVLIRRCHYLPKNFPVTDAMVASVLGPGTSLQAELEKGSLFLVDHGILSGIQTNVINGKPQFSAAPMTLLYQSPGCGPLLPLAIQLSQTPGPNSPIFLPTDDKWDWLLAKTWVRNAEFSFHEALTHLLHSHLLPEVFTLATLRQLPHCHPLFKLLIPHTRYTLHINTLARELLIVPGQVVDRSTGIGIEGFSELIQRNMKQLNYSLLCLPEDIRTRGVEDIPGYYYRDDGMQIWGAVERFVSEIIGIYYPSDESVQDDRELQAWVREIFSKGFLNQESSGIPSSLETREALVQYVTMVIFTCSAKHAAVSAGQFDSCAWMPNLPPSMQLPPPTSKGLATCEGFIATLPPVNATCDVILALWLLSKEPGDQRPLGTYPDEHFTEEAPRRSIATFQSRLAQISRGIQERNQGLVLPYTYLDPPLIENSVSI
SMILES,Potency,"activity change, negative = inhibition"
O=C(NCCN1CCc2ccccc2C1)C1CCN(S(=O)(=O)N2CCC3(CC2)OCCO3)CC1,"inconclusive: 0.158 µM [inhibitor, full curve, poor fit]",
Cc1nn(Cc2c(Cl)cccc2Cl)c(C)c1NC(=O)c1sc2ccccc2c1Cl,"inconclusive: 15.8 µM [inhibitor, partial curve]",
O=C(Nc1ccc2c(c1)OCO2)NC1(C(F)(F)F)Oc2ccccc2O1,"inconclusive: 15.8 µM [inhibitor, partial curve]",
Nc1c(S(=O)(=O)c2cccc(Cl)c2)c2nc3ccccc3nc2n1/N=C/c1ccc(O)c(O)c1,"inconclusive: 12.6 µM [inhibitor, partial curve]",
Cc1cc(C)c2nc(N3CCCN(C(=O)c4ccco4)CC3)c(C#N)cc2c1,"inconclusive: 12.6 µM [inhibitor, partial curve]",
COc1ccc(Cl)c(N2CCN(CCCNC(=O)Nc3ccc(C)cc3)CC2)c1,,inactive: 8.52%
COc1ccccc1CNc1ncnc2ccc(-c3cccc(C#N)c3)cc12,,inactive: 45.8%
Cc1ccc(-c2noc(C3CCN(S(=O)(=O)c4ccc5c(c4)OCCO5)CC3)n2)o1,"inconclusive: 31.6 µM [inhibitor, single point]",
O=C1/C(=C/Nc2ccc3c(c2)OCO3)CCc2ccccc21,"inconclusive: 2.51 µM [inhibitor, partial curve]",
Cc1[nH]nc2nc(SCC(=O)NCC3CCCO3)n(-c3ccc(Br)cc3)c(=N)c12 (stereo unspecified),"inconclusive: 0.251 µM [inhibitor, full curve]",
CCc1nnc(NC(=O)c2cccc(S(=O)(=O)N(C)c3ccccc3)c2)s1,,inactive: -18.7%
CC(C)C1=C2OC(N)=C(C#N)C(C#N)=C2C(C)CC1 (stereo unspecified),"inconclusive: 15.8 µM [inhibitor, partial curve]",
CC(C)Oc1ccc(CCc2n[nH]c(=S)n2Cc2ccccc2)cc1,"inconclusive: 15.8 µM [inhibitor, partial curve]",
COc1cccc(N=Nc2c(=O)[nH]n3c(=O)cc(C)[nH]c23)c1,,inactive: -24.8%
CCCCOc1ccc2ccccc2c1C=O,"inconclusive: 10 µM [inhibitor, partial curve]",
Oc1ccccc1/C=N/n1c(-c2cccs2)n[nH]c1=S,"inconclusive: 31.6 µM [inhibitor, partial curve, poor fit]",
CCCC(=O)Nc1ccc(NC(=O)Cc2ccccc2)cn1,,inactive: 2.15%
c1nc(N2CCNCC2)c2cc(-c3ccc4c(c3)OCO4)ccc2n1,,inactive: 28.4%
COC(=O)C(C)N1C(=O)S/C(=C/c2cc(C)n(-c3ccccn3)c2C)C1=O (stereo unspecified),"inconclusive: 20 µM [inhibitor, partial curve, poor fit]",
Cn1nc(CC(=O)NC2CCCCCCCCCCC2)c2ccccc2c1=O,"inconclusive: 20 µM [inhibitor, single point]",
COc1ccc(CCNC(=O)c2ccc3nc(-c4ccco4)c(-c4ccco4)nc3c2)cc1OC,"inconclusive: 2 µM [inhibitor, full curve]",
COc1cc(CNn2c(C)n[nH]c2=S)cc(Cl)c1OCc1ccc(F)cc1,"inconclusive: 15.8 µM [inhibitor, partial curve]",
COc1ccc(-c2cc(C(=O)O)c3c(C)nn(-c4ccccn4)c3n2)cc1,,inactive: 32.5%
COc1ccc(OC)c(Nc2nc(-c3ccc(O)c(O)c3)cs2)c1,active: 12.6 µM,

SMILES,Potency,"activity change, negative = inhibition"
Cc1ccc(C(=O)NNC(=O)CSc2nnc3c(n2)[nH]c2ccc(C)cc23)cc1,"inconclusive: 20 µM [inhibitor, single point]",
O=C1NC(c2ccco2)Nc2ccccc21 (stereo unspecified),,inactive: 4.42%
O=C(c1ccc(Br)s1)N1CCN(c2ncccn2)CC1,,inactive: -2.99%
CCN(CC)CCNC(=O)c1cc2c(-c3ccc(Cl)cc3)nn(C)c2s1,,inactive: 19.8%
CCC(Sc1ccc2nnc(-c3ccc(F)cc3)n2n1)C(=O)O (stereo unspecified),"inconclusive: 31.6 µM [inhibitor, single point]",
COc1ccc(N2C(=O)CS/C2=C\[N+](=O)[O-])cc1,,inactive: 0.132%
O=C(N/N=C/C=C/c1ccc([N+](=O)[O-])cc1)c1cccs1,"inconclusive: 25.1 µM [inhibitor, single point]",
COc1cc(N=c2ssnc2Cl)c(OC)cc1Cl,active: 25.1 µM,
CCCCn1c(SCC(=O)NCc2ccco2)nc2c(sc3ccccc32)c1=O,"inconclusive: 15.8 µM [inhibitor, partial curve]",
COC(=O)C(NNc1ccccc1C)(NC(=O)c1ccc(F)cc1)C(F)(F)F (stereo unspecified),"inconclusive: 6.31 µM [inhibitor, partial curve]",
CC(Sc1sc(=S)sc1SC(C)C(=O)O)C(=O)O (stereo unspecified),"inconclusive: 25.1 µM [inhibitor, single point]",
CC1(C(=O)O)Cc2ccccc2C(=O)O1 (stereo unspecified),,inactive: -2.02%
O=C(NCc1cccc2ccccc12)[C@H]1C[C@@H]1[C@H](NP(=O)(c1ccccc1)c1ccccc1)c1ccccc1,,inactive: 5.04%
Cc1ccco1,,inactive: -5.34%
Cc1nn(C)c2ncc(C(=O)c3cc(F)ccc3O)cc12,,inactive: 8.79%
Cc1ccccc1-n1c(=O)c2c(n3cnnc13)-c1ccccc1CC21CCCCC1,"inconclusive: 7.94 µM [inhibitor, full curve, poor fit]",
Cc1ccc(CNC(=O)CCc2c(C)nc3ncnn3c2C)cc1,"inconclusive: 0.251 µM [inhibitor, full curve, poor fit]",
CCCSC1=C(C#N)C(c2ccc(Cl)cc2Cl)CC(=O)N1 (stereo unspecified),"inconclusive: 39.8 µM [inhibitor, single point]",
COC(=O)c1ccccc1NC(=O)C1CCCN(S(=O)(=O)c2ccc(F)cc2)C1 (stereo unspecified),,inactive: -0.416%
CCOc1ncnc2c1oc1nc(CC(C)C)c3c(c12)CC(C)(C)OC3,"inconclusive: 0.316 µM [inhibitor, full curve, poor fit]",
CC(C)(NO)/C(=N/O)c1ccc(Br)cc1,"inconclusive: 15.8 µM [inhibitor, partial curve]",
Cn1c(SCC(=O)N/N=C/C=C\c2ccco2)nc2ccccc21,"inconclusive: 2.51 µM [inhibitor, full curve, poor fit]",
N#Cc1ccc(CN2CC[C@@]3(CCCN(C(=O)c4cc(C(F)(F)F)cc(C(F)(F)F)c4)C3)C2)cc1,,inactive: 27.5%
O=[N+]([O-])c1ccccc1C1Nc2cccc3cccc(c23)N1,"inconclusive: 12.6 µM [inhibitor, partial curve]",

SMILES,Potency,"activity change, negative = inhibition"
Cc1cccc(NC(=O)NNC(=O)c2cc(-c3ccccc3Cl)nc3ccccc23)c1,"inconclusive: 39.8 µM [inhibitor, single point]",
CC(=O)c1ccc(NC(=O)c2ccc3nc(-c4ccco4)c(-c4ccco4)nc3c2)cc1,"inconclusive: 12.6 µM [inhibitor, partial curve]",
N#Cc1c(N2CCN(C(=O)c3ccccc3)CC2)nc(-c2ccccc2)c2c1CCCC2,,inactive: -3.29%
Oc1ccc(-c2cn3c(n2)SCC3)cc1O,"inconclusive: 3.16 µM [inhibitor, full curve]",
CCC(c1nnc(SCC(=O)Nc2ccc(C(=O)Nc3ccccc3OC)cc2)o1)N(C)C (stereo unspecified),,inactive: -1.97% [at 11.4 µM]
CCOc1ccc(NC(=O)c2ccc(OC)cc2)cc1,,inactive: -5.99%
COc1ccc(S(=O)(=O)CCC(=O)N2CC(=O)N(CCc3ccccc3)C(=O)C2)cc1,"inconclusive: 31.6 µM [inhibitor, single point]",
COC(=O)C1=C(O)/C(=C\c2cc(C)n(-c3ccccc3C)c2C)N=C1C,"inconclusive: 31.6 µM [inhibitor, single point]",
S=C(NCc1ccccn1)Nc1ccc(Cl)c(Cl)c1,"inconclusive: 15.8 µM [inhibitor, partial curve]",
COc1ccc(-c2csc(NC(=O)CCn3cnc4ccccc4c3=O)n2)cc1OC,"inconclusive: 39.8 µM [inhibitor, single point]",
O=C(CCC(=O)Nc1ccccc1)N/N=C/c1ccncc1,"inconclusive: 15.8 µM [inhibitor, partial curve]",
O=c1[nH]c2ccc(Cl)cc2c(-c2ccccc2)c1N1CCN(c2ccccn2)CC1,"inconclusive: 2.51 µM [inhibitor, full curve, poor fit]",
CCCCCCc1cc2cc(-c3nnc(-c4ccccc4OC)o3)c(=O)oc2cc1O,"inconclusive: 15.8 µM [inhibitor, partial curve]",
C/C(=N\NS(=O)(=O)c1ccc(Cl)c([N+](=O)[O-])c1)c1ccc(C)o1,"inconclusive: 25.1 µM [inhibitor, single point]",
O[C@@H](COc1cccc2ccccc12)CN1CCOCC1,,inactive: -3.71% [at 11.4 µM]
Cc1nnc(C)n1/N=C/c1cccs1,"inconclusive: 0.316 µM [inhibitor, partial curve]",
Cc1ccc(NC(=S)N/C(=N/S(=O)(=O)c2ccccc2)c2ccccc2)cc1,"inconclusive: 25.1 µM [inhibitor, single point]",
O=C(Nc1nnc(C2CC2)s1)c1cc(-c2ccccc2)nn1-c1ccccc1,,inactive: 26%
O=C1c2ccccc2C(=O)c2c1ccc(O)c2O,"inconclusive: 15.8 µM [inhibitor, partial curve, poor fit]",
CC(C)CN(CC(C)C)S(=O)(=O)N1CCC(C(=O)NCc2ccccn2)CC1,"inconclusive: 0.316 µM [inhibitor, partial curve]",
Nc1nc(=S)c2[nH]cnc2[nH]1,,inactive: -19%
CCc1cccc(NC(=O)CSC2=NS(=O)(=O)c3ccccc32)c1,active: 5.01 µM,
CC(=O)N(Cc1cc(=O)[nH]c2ccccc12)c1cccc(C)c1,"inconclusive: 12.6 µM [inhibitor, partial curve]",

# — PubChem BioAssay AID881 (National Center for Advancing Translational Sciences (NCATS), 2007)
